Laboratory results as given in PubChem BioAssay AID624296 (National Center for Advancing Translational Sciences (NCATS), 2012).
Screen size: about 350,000 compounds; about 9,900 (2.8%) were called active. The shares of active, inactive and inconclusive entries below differ from those in the screen. The call rests on the fitted dose curve; in most records, active means well fitted activation curve with a large enough effect; inconclusive means small, poorly fitted or top-dose-only effect; inactive means no such curve, though single readings can be large or run the other way. Potencies of inconclusive entries are left out as doubtful fits.
Potency means the concentration at half of the fitted maximal effect; tags describe the fitted curve by direction and shape.

Test: A quantitative high throughput screen for small molecules that induce DNA re-replication in MCF 10a normal breast cells. Further: nearly all actives have a fitted effect of over 50% in size. On activity, positive = re-replication: % of control where 0% means no effect.
Settings: MCF 10A DNA re-replication, Hoechst nuclear intensity, 48 h; activity, positive = re-replication: at 46.1 µM (top of the series)
For `CNc1ccc(Br)cc(C(=O)/C=C/c2ccc(OC)cc2)c1=O`, the Potency was inconclusive [activator, partial curve, poor fit].
For `N#C/C(=C(/O)COC(=O)c1ccc2c(c1)OCCO2)c1nc2ccccc2[nH]1`, the Potency was inconclusive [activator, single point].
In the case of `CCOC(=O)/C=c1/s/c(=C/c2ccc3cc(OC)ccc3c2)c(=O)n1CC(=O)NCc1ccc2c(c1)OCO2`, the Potency is reported as active: 1.46 µM.
For `CCCCNC(=S)NC1CCCC1`, the “activity, positive = re-replication” value was inactive: -6.64%.
In the case of `COc1ccc(S(=O)(=O)N(C)C[C@H]2Oc3c(NC(=O)Nc4ccc(C(F)(F)F)cc4)cccc3C(=O)N([C@H](C)CO)C[C@@H]2C)cc1`, the Potency is reported as inconclusive [activator, single point].
In the case of `O=C1NC(=O)C2C3C=CC(C3)C12` (stereo not given), the “activity, positive = re-replication” value is reported as inactive: 1.66%.
With `CCOc1ncccc1C(=O)Nc1cc2c(cc1Br)OCCO2` the Potency was inconclusive [activator, single point].
In the case of `COc1ccc(C/C(C)=N/NC(=S)Nc2ccc(C)c(C)c2)cc1`, the Potency is reported as inconclusive [activator, partial curve, poor fit].
In the case of `Cc1c(OCC(=O)NC(Cc2ccc(Cl)cc2)C(=O)O)ccc2c1oc(=O)c1ccccc12` (stereo not given), the Potency is reported as inconclusive [activator, single point].
For `CCO[C@@H]1OC(C(=O)N2CCN(Cc3ccc4c(c3)OCO4)CC2)=C[C@H](c2csc3ccccc23)[C@H]1CCCO`, the Potency was inconclusive [activator, single point].
For `C/C(N)=C(/C#N)C(=O)CSc1cc(C)c2cc(C)cc(C)c2n1`, the “activity, positive = re-replication” value was inactive: 15.5%.
In the case of `COc1ccc(-c2nc3ncnn3cc2C)cc1F`, the “activity, positive = re-replication” value is reported as inactive: 0.414%.
With `Cc1onc(-c2ccccc2)c1C(=O)OCC(=O)Nc1ccc(OC(F)(F)F)cc1` the “activity, positive = re-replication” value was inactive: 18.2%.
For `COc1cccc(N=C2CC(C)(C)CC(=O)/C2=C(/O)c2ccccc2)c1`, the “activity, positive = re-replication” value was inactive: 2.99%.
In the case of `Cc1ccc(C(=O)/C=C/Nc2ccc(S(=O)(=O)Nc3cc(C)nc(C)n3)cc2)cc1`, the Potency is reported as inconclusive [activator, single point].
In the case of `O=C(Nc1cccc(S(=O)(=O)N2CCCCC2)c1)C1CCN(C(=O)c2ccc(Cl)cc2)CC1`, the Potency is reported as inconclusive [activator, single point].
In the case of `OCCN=C1CCCc2c1[nH]c1ccc(Br)cc21`, the “activity, positive = re-replication” value is reported as inactive: 20.6%.
In the case of `O=C1c2ccc(Oc3cccc([N+](=O)[O-])c3)cc2C(=O)N1c1ccccn1`, the “activity, positive = re-replication” value is reported as inactive: -10.6%.
With `CC(C)(C)OC(=O)N1CCC[C@@H]1CO` the “activity, positive = re-replication” value was inactive: -8.77%.
For `Fc1cccc(CNC2CCN(CCc3ccccc3)CC2)c1`, the “activity, positive = re-replication” value was inactive: 16.4%.
With `COC(=O)C1=CN(c2cccc(C(F)(F)F)c2)C=C(C(=O)OC)C1c1ccc(O)c(OC)c1` the Potency was inconclusive [activator, single point].
For `Nc1ccc2nc(CCCCCCCCc3nc4ccc(N)cc4[nH]3)[nH]c2c1`, the Potency was active: 2.31 µM.
With `CC(=O)Nc1nnc(COc2ccc(Cl)cc2)s1` the “activity, positive = re-replication” value was inactive: 0.785%.
For `Cc1ccc(-c2csc(NC(=O)c3ccc(-c4ccccc4)cc3)n2)o1`, the Potency was inconclusive [activator, single point].
For `COc1cc2cc(Oc3ccc4ccc(=O)oc4c3)c(=O)oc2cc1OC(=O)/C=C/c1ccccc1`, the Potency was inconclusive [activator, full curve, poor fit].
For `CCOc1ccccc1OCc1nn2c(COc3ccccc3)nnc2s1`, the Potency was inconclusive [activator, single point].
For `CN(C)CCCN(C(=O)c1ccc(C(=O)c2ccccc2)cc1)c1nc2c(F)cccc2s1`, the “activity, positive = re-replication” value was inactive: 4.2%.
With `O=C(/C=C/c1ccccc1)Oc1cccc2cccnc12` the Potency was inconclusive [activator, partial curve, poor fit].
With `O=C(Nc1ccccc1NC(=O)NC1CCCCC1)NC1CCCCC1` the Potency was active: 3.66 µM.
With `O=C(Nc1ccc(Cl)c(Cl)c1)Oc1ccc(NC(=O)c2ccco2)cc1` the Potency was inconclusive [activator, single point].
With `CCc1ccc(NC(=O)C(=O)NCCN2CCN(Cc3ccc([N+](=O)[O-])cc3)CC2)cc1` the Potency was inconclusive [activator, partial curve, poor fit].
With `CCN(C[C@H]1N[C@@](CC)(C(=O)OC)[C@H]2C(=O)N(C)C(=O)[C@@H]12)C(=O)COc1ccccc1` the Potency was inconclusive [activator, partial curve, poor fit].
With `CCC(CC)C(=O)Nc1ccc(Sc2ccc([N+](=O)[O-])cc2)cc1` the Potency was inconclusive [activator, single point].
In the case of `Cc1ccc(-c2cc(-c3ccccc3)nc(N)c2C#N)o1`, the Potency is reported as inconclusive [activator, single point].
In the case of `COCCCNC(=O)c1cccc(NC(=O)c2ccccc2)c1`, the Potency is reported as inconclusive [activator, single point].
In the case of `CCOc1ccc(-c2cc(C(=O)N/N=C/c3cccnc3)c3ccccc3n2)cc1`, the Potency is reported as active: 2.91 µM.
In the case of `CN1CCN(CCCCC(=O)c2ccccc2)CC1`, the Potency is reported as inconclusive [activator, partial curve, poor fit].
For `Cc1cc(C)cc(NC(=S)NCCN2CCOCC2)c1`, the Potency was inconclusive [activator, single point].
In the case of `O=S1(=O)N=C(N2CCN(Cc3ccccc3)CC2)c2ccccc21`, the “activity, positive = re-replication” value is reported as inactive: -5.13%.
With `CCN(CC)S(=O)(=O)c1ccc(S(=O)(=O)N2CCCC(C(=O)NC3CC3)C2)cc1` (stereo not given) the Potency was inconclusive [activator, full curve, poor fit].
For `CCN1C(=O)NC2=C(C(=O)c3ccccc32)C1c1ccccc1F` (stereo not given), the Potency was inconclusive [activator, single point].
For `CC(C)NC1CCC(Nc2ccnc3cc(Cl)ccc23)CC1` (stereo not given), the “activity, positive = re-replication” value was inactive: 13.4%.
With `Nc1ccccc1C(=O)NCc1ccc(Cl)cc1` the Potency was inconclusive [activator, single point].
For `CSc1ccccc1NC(=O)COc1ccccc1C`, the Potency was inconclusive [activator, single point].
In the case of `O=C(COC(=O)Cc1ccc(F)cc1)NCc1ccco1`, the “activity, positive = re-replication” value is reported as inactive: 2.71%.
With `O=C1CCCCCN1Sc1ccccc1` the Potency was inconclusive [activator, single point].
In the case of `CC1CCCN(C(=O)c2cccc(S(=O)(=O)Nc3cc(C(F)(F)F)ccc3Cl)c2)C1` (stereo not given), the Potency is reported as inconclusive [activator, single point].
With `Cc1ccccc1NC1=C/C(=N\S(=O)(=O)c2ccc(C(=O)O)cc2)c2ccccc2C1=O` the Potency was active: 2.06 µM.
In the case of `CC(NC(=O)c1cc(F)c(F)c(F)c1F)c1ccc(-n2ccnc2)cc1` (stereo not given), the “activity, positive = re-replication” value is reported as inactive: 4.46%.
In the case of `O=[N+]([O-])c1ccc(N/N=C\c2ccccc2OCc2ccccc2)cc1`, the Potency is reported as inconclusive [activator, partial curve, poor fit].
With `O=C(/C=C/c1ccccc1)CCN1CCOCC1` the Potency was inconclusive [activator, full curve].
With `CCOC(=O)CSc1nc(N2CCOCC2)c2c(c1C#N)CC(C(C)C)OC2` (stereo not given) the Potency was inconclusive [activator, partial curve].
With `Cc1ccc(CN2CCC(CNC(=O)c3ccc(NC(=O)C4=CSCCO4)cc3)CC2)cc1` the Potency was inconclusive [activator, single point].
With `Cc1ccccc1NC(=O)CCC(=O)N/N=C/c1cc([N+](=O)[O-])ccc1O` the Potency was inconclusive [activator, partial curve, poor fit].
For `O=C(Nc1ccc(N2CCCC2)cc1)c1cc(Br)ccc1Cl`, the Potency was inconclusive [activator, partial curve, poor fit].
For `N#Cc1c2c(c(Nc3ccc(O)cc3)n3c1nc1ccccc13)CCC2`, the Potency was inconclusive [activator, single point].
For `C/C=C/C=N/Nc1nc(-c2ccc([N+](=O)[O-])cc2)cs1`, the “activity, positive = re-replication” value was inactive: 0.312%.
For `O=[N+]([O-])c1ccc(N=Nc2c(O)[nH]c3ccc(F)cc23)cc1`, the Potency was active: 7.31 µM.
In the case of `Cc1ccc(S(=O)(=O)N2CCC(C(=O)NNC(=O)c3ccccc3O)CC2)cc1C`, the “activity, positive = re-replication” value is reported as inactive: 19.5%.
For `FC(F)(F)c1ccccc1NC(=S)NN=C1CCCCCC1`, the Potency was inconclusive [activator, partial curve, poor fit].
In the case of `O=C(NNc1nc2ccccc2s1)Nc1ccc(Cl)c(Cl)c1`, the Potency is reported as inconclusive [activator, single point].
In the case of `Cc1nc2sc(C(c3ccc(F)cc3)N3CCOCC3)c(O)n2n1` (stereo not given), the Potency is reported as inconclusive [activator, single point].
With `CN=C(NC)SC1CC(=O)N(c2ccccc2)C1=O` (stereo not given) the Potency was inconclusive [activator, single point].
With `CC(=O)Nc1cccc(-c2cnc(N)c(C(=O)c3cccnc3)n2)c1` the Potency was inconclusive [activator, partial curve, poor fit].
For `COc1cc(NS(=O)(=O)c2cc3[nH]c(=O)c(=O)[nH]c3cc2C)cc(OC)c1OC`, the “activity, positive = re-replication” value was inactive: 17.4%.
In the case of `CC(C)CNC(=O)COC(=O)/C=C/c1ccccc1[N+](=O)[O-]`, the Potency is reported as inconclusive [activator, single point].
For `COCCCn1c(SCC(=O)NC2CCCCC2)nnc1-c1ccco1`, the “activity, positive = re-replication” value was inactive: -31.9%.
With `COc1ccc(OC)c(NC(=O)C2CCC(CNc3c(N4CCOCC4)c(=O)c3=O)CC2)c1` (stereo not given) the “activity, positive = re-replication” value was inactive: 0.773%.
In the case of `COc1ccc(/C=C/C(=O)c2cc(Br)ccc(=O)c2O)cc1`, the Potency is reported as inconclusive [activator, single point].
In the case of `Cc1ccc2nc(NC(=O)CSc3nc(=O)n(CCCN(C)C)c4c3CCC4)sc2c1`, the Potency is reported as inconclusive [activator, single point].
